In article PMC6919601, “Identification of Plasmodium dipeptidyl aminopeptidase allosteric inhibitors by high throughput screening” (PLoS ONE, 2019):
In all, about 110,000 compounds went through this assay and about 230 (0.21%) showed an effect of 50% or more. The list shows a part of the results.

biological target: DPAP1 (Plasmodium falciparum, UniProt Q8IIJ9); assay: primary screen, percent inhibition; read by cleavage of a fluorogenic dipeptide substrate; higher = more effect of the substance; design: species or system P. falciparum D10 trophozoite lysates; single well
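Note: 30 min substrate incubation versus DMSO and 10 µM JCP410 controls.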

Chain of DPAP1 (Q8IIJ9 whole entry, looked up): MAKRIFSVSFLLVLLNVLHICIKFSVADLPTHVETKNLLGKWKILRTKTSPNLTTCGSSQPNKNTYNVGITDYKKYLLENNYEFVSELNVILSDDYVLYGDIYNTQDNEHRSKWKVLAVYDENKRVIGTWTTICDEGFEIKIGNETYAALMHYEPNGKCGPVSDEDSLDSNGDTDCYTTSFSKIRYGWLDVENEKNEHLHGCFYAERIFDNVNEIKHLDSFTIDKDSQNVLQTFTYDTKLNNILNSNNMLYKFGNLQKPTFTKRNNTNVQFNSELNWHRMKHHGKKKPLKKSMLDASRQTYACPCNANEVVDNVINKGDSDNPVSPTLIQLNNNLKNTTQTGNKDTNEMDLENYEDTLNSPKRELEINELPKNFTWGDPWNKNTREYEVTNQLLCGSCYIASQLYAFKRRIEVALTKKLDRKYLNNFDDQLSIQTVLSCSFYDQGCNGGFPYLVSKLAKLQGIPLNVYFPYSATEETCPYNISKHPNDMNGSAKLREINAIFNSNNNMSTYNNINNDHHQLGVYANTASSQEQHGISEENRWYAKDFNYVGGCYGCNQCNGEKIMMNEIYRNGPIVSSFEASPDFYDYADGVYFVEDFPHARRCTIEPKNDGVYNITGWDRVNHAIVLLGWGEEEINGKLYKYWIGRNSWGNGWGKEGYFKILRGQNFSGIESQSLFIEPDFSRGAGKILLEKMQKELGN

SMILES | % Inhibition @ 10 uM [%]
CCOC(=O)c1c(NC(=O)c2cc(OC)c(OC)c(OC)c2)sc(-c2ccccc2)c1C | -4.49
Cc1oc(-c2ccc(C(=O)NCCCN3CCOCC3)cc2)nc1CS(=O)(=O)c1ccccc1 | -6.31
CCN(CC)CCn1c(NC(=O)C(F)(F)F)nc2ccccc21 | -2.47
Cc1cc(=O)n2nc(N3CCC(C(=O)NCCc4ccc(Cl)cc4)CC3)sc2n1 | -0.281
COc1cccc(Cn2c(C)c(CNC3CCCCCC3)c(C(=O)O)c2C)c1 | -3.67
Cc1nn(C(C)C(=O)NCCC(C)C)c(=O)c2nn(-c3ccccc3)c(C)c12 (stereo not drawn) | -1.76
O=C(O)CNc1ncnc2sc3c(c12)CCCC3 | 2.38
O=C(O)c1cccc(-c2ccc(/C=c3/sc4nc5ccccc5n4c3=O)o2)c1 | -3.21
CCC1CCCCN1S(=O)(=O)c1ccccc1 (stereo not drawn) | 0.605
COc1ccc(N(CC(=O)NCc2ccc(Cl)cc2)S(C)(=O)=O)cc1OC | -5.27
C=CCN1C(=O)C2(NC(C)C3C(=O)N(Cc4ccccc4)C(=O)C32)c2ccccc21 (stereo not drawn) | -1.38
CCOc1ccc(-c2nc(CS(=O)(=O)CC(=O)NCc3ccccc3Cl)c(C)o2)cc1 | -6.68
Cc1ccc(S(=O)(=O)NC(=O)COc2ccccc2C)cc1 | 2.08
Cn1c(=O)[nH]c(=O)c2c1ncn2CCN(Cc1ccccc1)Cc1ccccc1 | 0.812
CC(Nc1cnn(C23CC4CC(CC(C(=O)O)(C4)C2)C3)c(=O)c1Cl)c1ccccc1 (stereo not drawn) | 7.15
CS(=O)(=O)CC[C@@H](C(=O)NCc1ccco1)N1Cc2ccccc2C1=O | -0.465
O=C(CSc1nc2cc(Cl)ccc2s1)NCC1CCCO1 (stereo not drawn) | 2.67
O=C(c1ccc(F)cc1)N1CCN(Cc2cccc(Br)c2)CC1 | -3.76
COc1ccc(Cl)cc1C(=O)Nc1ccc2oc(-c3cccnc3)nc2c1 | 1.72
NC1=NC2(CCCCC2)N(c2cccc(Cl)c2)C(N)=N1 | 0.634
CCOc1ccc(C2CCC(=O)NC2=O)cc1 (stereo not drawn) | 1.24

SMILES | % Inhibition @ 10 uM [%]
O=C(Cn1nc(-c2ccccc2)ccc1=O)NCCN1CCC(Cc2ccccc2)CC1 | 2.18
CCc1cccc2c(C(=O)C(F)(F)F)cn(CC(=O)NCc3ccco3)c12 | -4.77
COc1ccc(OC)c(NC(=O)c2ccc(Br)cc2)c1 | -1.52
CCO/C(O)=C1\C(C)=Nc2nc(-c3cccs3)nn2C1c1ccc(C#N)cc1 (stereo not drawn) | 0.0598
COC(=O)c1sc2cc(F)ccc2c1Cl | -0.294
COCCNS(=O)(=O)c1ccc(OC)c(-c2nnc3c4ccccc4c(C)nn23)c1 | -1.11
COCCNC(=O)Cn1nc(C)n2c(cc3cc(F)ccc32)c1=O | 0.0198
Fc1cccc(Cl)c1CSc1nc2cccnc2[nH]1 | 2.97
CC(C)CCn1c(SCCc2ccccc2)nc2c1c(=O)[nH]c(=O)n2C | -6.36
COCc1[nH]nc2c1C1(CCSC1C)C(C#N)=C(N)O2 (stereo not drawn) | -1.06
c1ccc(CCN2CCC(NC3CCN(Cc4ccccc4)CC3)CC2)cc1 | -5.44
Cc1c(C)n(C)c2ccc(C(=O)NCCc3ccccc3Cl)cc12 | 2.77
CCOC(=O)N1CCC(NCCc2ccc(F)cc2)CC1 | -1.5
Cc1ccc(CNC(=O)c2cc3c(=O)n4cccc(C)c4nc3n2C)cc1 | 4.46
Nc1ccc2c(c1)Nc1ccccc1CC2 | 0.937
COc1cccc(C2N3CC4(C)CN2CC(C)(C3)C4=O)c1O (stereo not drawn) | 2.1
CCOC(=O)c1c(NC(=O)COc2ccc(Cl)cc2Cl)sc2c1CCC2 | 4.1
Cc1ccnc(NC(=O)NCc2noc3ccccc23)c1 | 2.49
O=C(c1ccccc1)N1CCN(C(=O)C23CC4CC(CC(C4)C2)C3)CC1 | -4.06
Clc1ccc(N2CCN(CC(c3ccccc3)c3ccccc3)CC2)cc1 | 3.44
O=C(CCc1nc(-c2ccccc2F)no1)Nc1cccnc1 | 5.1

SMILES | % Inhibition @ 10 uM [%]
Cc1ccccc1Cn1c(C(=O)O)c(CNCc2ccccc2Cl)c2ccccc21 | 5.62
COc1ccc(NC(=O)C2CC(=O)N=C(Nc3ccc(C)c(C)c3)S2)cc1 (stereo not drawn) | -4.01
CCO/C(O)=C1\C(C)=NC(=S)NC1c1cc(Br)c(O)c(OCC)c1 (stereo not drawn) | -0.85
COc1cc(C2CC(=O)NC(SCC(=O)Nc3nccs3)=C2C#N)cc(OC)c1OC (stereo not drawn) | -3.21
CCCN1CCC(NCCC(c2ccccc2)c2ccccc2)CC1 | 1.08
O=C(O)/C=C(/c1ccccc1)C(F)(F)F | 3.48
CSc1cc(S(=O)(=O)C(C)(C)C)sc1S(=O)(=O)C(C)(C)C | 2.62
N#Cc1c(N)nc2c(c1-c1cccs1)CCCCC2 | 0.605
CCC(C)NC(=O)C1CCN(c2nnc(C)c3c(C)n(-c4ccc(C)cc4)nc23)CC1 (stereo not drawn) | 9.79
CC1CCCCN1C(=O)Cn1ncc2c3ccccc3n(Cc3ccccc3)c2c1=O (stereo not drawn) | 3.4
COc1ccc(-c2cc(-c3ccc(OC)cc3)c(C#N)c(SCC(=O)c3ccccc3)n2)cc1 | -2.47
CC1=C(C(=O)Nc2cc(C)ccn2)C(c2cccc(Cl)c2)C2=C(O)CC(C)(C)CC2=N1 (stereo not drawn) | 2.76
O=S(=O)(Nc1cc(C(F)(F)F)ccc1Cl)c1ccc(F)cc1 | -7
CCCSC1=C(C#N)C(c2ccccc2OC)CC(=O)N1 (stereo not drawn) | -0.736
CN(C)C(CNC(=S)NCc1ccccc1)c1cccnc1 (stereo not drawn) | -2.29
COc1ccc(C(=O)Nc2ccc(Cl)cc2C(=O)NCCN2CCOCC2)cc1 | -12.7
COCc1nc(-c2ccc(-c3ccc(Cl)cc3)nc2OC)no1 | -1.33
O=C(Nc1cccc(C(=O)Nc2ccccc2C(=O)O)c1)c1cccc(Cl)c1 | -1.51
Cc1ccc2c(C(=O)CSc3ccccc3)c(C)[nH]c2c1 | -3.41
O=C(c1ccc(CS(=O)(=O)Cc2ccc(Cl)cc2)o1)N1CCCCCC1 | -3.12
CCOC(=O)N1CCN(C(=O)c2cc3c(=O)oc4ccc(C)cc4c3s2)CC1 | -1.54
